# From PubChem BioAssay AID686971 (National Center for Advancing Translational Sciences (NCATS), 2013)
# Among all 360,000 compounds or so, about 7,500 (2.1%) were called active. Inconclusive means that the source gave no clear call. Such entries were picked first, then a sample of the others. Calls come from the whole dose curve; as a rule, active = well fitted cell-killing curve with a large enough effect; inconclusive = small, poorly fitted or top-dose-only effect, or effect the other way, or another doubt; inactive = no such curve, though single readings can be large or run the other way. No potency is given beside an inconclusive call; the fits are too rough.
# Experiment: qHTS for induction of synthetic lethality in tumor cells producing 2HG: qHTS for the HT-1080-IDH1KD cell line;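 for activity, negative = toxicity: 0% = DMSO wells and -100% = cell-free medium wells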
# Conditions: HT-1080 IDH1 knockdown viability, ATP luminescence, 48 h; activity, negative = toxicity: at 46.1 µM (top of the series) unless noted
# In short: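 HT-1080-IDH1KD cells (IDH1 knocked down), 750/well in RPMI with 5% FBS, treated with compound 48 h at 37 degrees C. Viability by CellTiter-Glo luminescence, normalised to DMSO and no-cell wells; concentration-response curves classed.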
# Potency is the fitted concentration of half-maximal effect; tags give direction and shape of the fitted curve.
SMILES,Potency,"activity, negative = toxicity"
O=C(c1cc(Cl)nc2ccccc12)N(Cc1nnc(-c2ccc(Cl)cc2)o1)C1CC1,inactive,
CNc1nc(NCc2ccc(N(C)C)cc2)c2sccc2n1,"inconclusive [cytotoxic, single point]",
NC(=O)C1(N2CCCCC2)CCN(CC(=O)Nc2ccccc2Sc2ccccc2)CC1,inactive,
CCC(=O)N1CCN(c2ccc(NC(=O)c3ccc([N+](=O)[O-])o3)cc2)CC1,active: 5.17 µM,
Cc1ccc(S(=O)(=O)N(C(=O)c2ccncc2)c2ccc(OC(=O)c3ccncc3)c3ccccc23)cc1,"inconclusive [cytotoxic, single point]",
O=S(=O)(c1ccc2c(c1)OCCO2)N1CCC(c2nc3ccccc3[nH]2)CC1,"inconclusive [cytotoxic, single point]",
Cc1cccc(C)c1OCCCCN1CCCCC1,inactive,
Cc1c(C(=O)NCc2ccc(Cl)c(Cl)c2)sc(=O)n1Cc1cccc(F)c1,"inconclusive [cytotoxic, single point]",
Cc1ccc(-n2nnnc2CCl)cc1,"inconclusive [cytotoxic, single point]",
Cc1ccc(-c2nn(-c3ccccc3)cc2C(=O)N2CCN(c3ccccn3)CC2)cc1,"inconclusive [cytotoxic, single point]",
CCN1CCN(c2c(C(=O)c3ccc(OC)cc3)cnc3ccccc23)CC1,inactive,
Cc1cc(O)cc(O)c1-c1onc(C(F)(F)F)c1-c1cscn1,inactive,
O=C(CSc1nnc(CNC(=O)c2c(F)cccc2F)o1)NCCc1ccccc1,inactive,
CCCN1CCN(CCCNC(=O)c2cc3c(s2)-c2ccccc2OC3)CC1,"inconclusive [cytotoxic, single point]",
OC[C@@H]1CN(Cc2ccncc2)C[C@H](n2cnc3c(N4CCN(c5ccccc5)CC4)ncnc32)O1,"inconclusive [cytotoxic, single point]",
O=C(Nc1ccc(-c2nc3ncccc3o2)cc1)c1ccc(Br)o1,inactive,
CCCC(C(=O)NC1CCCC1)N(Cc1ccccc1Cl)C(=O)c1snc(C(N)=O)c1N (stereo not given),,inconclusive: -5.01% [cytotoxic]
COc1cccc(CNS(=O)(=O)c2cc(-c3cc(C)no3)ccc2C(C)C)c1,"inconclusive [cytotoxic, single point]",
OC(c1cccnc1)c1nc(-c2cccc(F)c2)cs1 (stereo not given),inactive,
CCCCCc1cc(O)c2c(C)cc(=O)oc2c1,"inconclusive [cytotoxic, partial curve]",
CCCNC(=O)C1CCN(S(=O)(=O)c2cccc3nonc23)CC1,inactive,
COc1cc(NC(=S)NCCN2CCOCC2)cc(OC)c1,inactive,
Cc1cc(NC(=O)c2c(F)cccc2F)n(-c2nc3ccccc3[nH]2)n1,active: 10 µM,
Cn1c(CS(=O)Cc2c(Cl)cccc2Cl)nnc1SCc1c(Cl)cccc1Cl (stereo not given),"inconclusive [cytotoxic, single point]",

SMILES,Potency,"activity, negative = toxicity"
CN(C)CCCN(C(=O)CCc1ccccc1)c1nc2ccc(Br)cc2s1,"inconclusive [cytotoxic, single point]",
CCOc1cccc2sc(=NC(=O)CCS(=O)(=O)c3ccc(F)cc3)n(C)c12,inactive,
Cc1nn(Cc2ccc(Cl)cc2)c(C)c1NC(=O)c1cc(-c2ccco2)on1,"inconclusive [cytotoxic, single point]",
CSc1nc(N)nc(SCC(=O)C23CC4CC(CC(C4)C2)C3)c1C#N,"inconclusive [cytotoxic, single point]",
CCN(CC(=O)NCc1cccs1)C(=O)c1ccc(-c2cccc(C(F)(F)F)c2)o1,"inconclusive [cytotoxic, single point]",
O=C(CN1CCc2ccccc2C1)N1CCN(S(=O)(=O)c2ccccc2)CC1,inactive,
O=C(OCc1ccccc1)N1CCC2CC1c1cc(-c3ccc(F)cc3)ccc12 (stereo not given),inactive,
COc1cc(/C=N/NC(=Nc2ccc(C)cc2)c2nc3ccccc3s2)ccc1O,"inconclusive [cytotoxic, single point]",
COc1cccc2ccc(CC(O)(c3ccccc3)c3ccccc3)nc12,inactive,
O=C(CCl)Nc1cc(SCC(O)CO)cc([N+](=O)[O-])c1 (stereo not given),active: 1.64 µM,
O=C(Nc1ccc2nc3n(c(=O)c2c1)CCCC3)c1cccc(F)c1,inactive,
C[N+](C)(CC#Cc1ccccc1)CC(=O)c1ccc(Cl)cc1,"inconclusive [cytotoxic, single point]",
CCc1nc(Nc2ccc(OC)cc2OC)c2oc3ccccc3c2n1,active: 14.6 µM,
Nc1nc(N2CCN(C(c3ccccc3)c3ccccc3)CC2)n[nH]1,"inconclusive [cytotoxic, partial curve]",
COc1ccc(OC)c(C2=NOC(C(=O)NCc3cccs3)C2)c1 (stereo not given),"inconclusive [cytotoxic, single point]",
CS(=O)(=O)N(CC(=O)Nc1c(F)cccc1F)c1ccc(C23CC4CC(CC(C4)C2)C3)cc1,"inconclusive [cytotoxic, single point]",
COc1ccc(-c2cc3c(=O)n(CC(=O)Nc4cccc(Cl)c4)nc(C)n3n2)cc1,inactive,
Nc1nonc1-n1nnc(C(=O)N/N=C/c2cc(Br)ccc2O)c1CNc1ccccc1,active: 23.1 µM,
O=C(CN1CCN(C(=O)c2ccco2)CC1)Nc1cc(S(=O)(=O)N2CCCC2)ccc1Cl,inactive,
COc1ccc2c(c1)-c1c(sn(-c3ccc(OC)c(OC)c3)c1=S)C(C)(C)N2,active: 18.4 µM,
Cc1ccc(NC(=O)c2cc(N3C(=O)C=CC3=O)ccc2N2CCOCC2)cc1Cl,active: 16.4 µM,
N#CC1=C(N)N(c2ccc(Br)cc2)C2=C(C(=O)CCC2)C1c1cccnc1 (stereo not given),"inconclusive [cytotoxic, single point]",
Cc1ccc(OCC(=O)NNC(=O)Cn2nnc(-c3ccccc3)n2)cc1,"inconclusive [rising, single point]",
CC(C)C(=O)NC(=S)/C=C1/N(C)c2ccccc2C1(C)C,"inconclusive [cytotoxic, single point]",

SMILES,Potency,"activity, negative = toxicity"
COc1ccccc1NC(=O)Nc1nc(C(N)C2CCCCC2)cs1 (stereo not given),"inconclusive [cytotoxic, single point]",
COC(=O)c1cccc(C23CC4(C2)[C@H](CN(Cc2cccnc2)[C@@H]4c2ccccc2)C3c2ccccc2)c1 (stereo not given in full),"inconclusive [cytotoxic, single point]",
COC(=O)c1ccc(CN2C(=O)NC(CC(C)C)C2=O)cc1 (stereo not given),inactive,
CC(=O)N1CCN(c2ccc(NC(=O)c3ccc(C(C)(C)C)cc3)cc2)CC1,"inconclusive [cytotoxic, partial curve]",
CC(=O)N(CC(=O)Nc1sc(C)c(C)c1C(N)=O)Cc1ccccc1,inactive,
CN(c1ccccc1)S(=O)(=O)c1cccc(C(=O)NCCc2ccc(O)c(O)c2)c1,"inconclusive [cytotoxic, full curve, poor fit]",
CN1CCc2cccc3c2[C@H]1Cc1ccc(O)c(O)c1-3,active: 32.6 µM,
CCS(=O)(=O)Nc1ccc(C2=NN(C(=O)c3ccccc3)C(c3cccs3)C2)cc1 (stereo not given),"inconclusive [cytotoxic, single point]",
COc1ccc(-c2ccc(OC)c([C@H]3[C@@H]4C=CCC[C@@]4(C)C(=O)N3Cc3ccccc3)c2)cc1OC,"inconclusive [cytotoxic, single point]",
CCOC(=O)c1c(C)c(C(=O)Nc2ccc(F)cc2)c(C)n1C,"inconclusive [cytotoxic, single point]",
COC(=O)[C@@]12C[C@@H](CC(=O)NCc3ccc(C)o3)C(=O)N(Cc3ccc4c(c3)OCO4)C1=CCC(C)(C)C2,"inconclusive [cytotoxic, partial curve, poor fit]",
COc1cc(-n2nc(C)c3c2OC(N)=C(C#N)C3c2ccccc2)c(Cl)c(Br)c1O (stereo not given),"inconclusive [cytotoxic, single point]",
Cc1cc(C)c(NC(=O)Nc2ccccc2)c(Cl)c1,inactive,
O=C(Nc1ccccc1-c1nnn(CC(=O)N2CCCc3ccccc32)n1)c1ccco1,"inconclusive [cytotoxic, single point]",
COc1ccc(C)cc1NC(=O)Nc1ccc(C(=O)N2CCCC2)cc1,"inconclusive [cytotoxic, partial curve]",
COc1cc(/C=C2\SC(=Nc3ccc(O)cc3)NC2=O)cc(OC)c1O,,inconclusive: -22.6% [cytotoxic]
CC(C)C1CC(CCNCc2ccc(N(C)C)cc2)(c2ccccc2)CCO1 (stereo not given),"inconclusive [cytotoxic, single point]",
CCOC(=O)c1nc(Nc2ccc(Nc3ccccc3)cc2)c2ccccc2n1,"inconclusive [cytotoxic, single point]",
O=C(NCc1cccs1)c1csc([C@@H]2O[C@H](CO)[C@H](O)[C@H](O)[C@H]2O)n1,"inconclusive [rising, single point]",
CC(C)CCN1CCN(CC#Cc2ccccc2)CC1CCO (stereo not given),inactive,
COC(=O)c1ccc(NC(=S)NC2CC3CCC2C3)cc1 (stereo not given),"inconclusive [cytotoxic, single point]",
Cc1noc(NS(=O)(=O)c2ccc(NC(=O)Nc3ccc(Cl)c(Cl)c3)cc2)c1C,"inconclusive [cytotoxic, single point]",
